A compilation of properties of binary mixtures (doi:10.1016/j.fluid.2015.01.011)
The densities may have been worked out from excess volumes.

Assay: xn = mol fraction of the nth substance listed
Conditions: 100 kPa

[N-]=C=S.[NH4+] + CC[n+]1ccn(C)c1.N#C[S-]
mass density [kg/m3]
Conditions | x1 = 0.039 | x1 = 0.099 | x1 = 0.1395
298.15 K | 1115.8 | 1116.8 | 1116
303.15 K | 1112.7 | 1113.8 | 1113
308.15 K | 1109.7 | 1110.8 | 1110
313.15 K | – | 1107.8 | 1107
318.15 K | – | 1104.9 | –
323.15 K | 1100.9 | 1102 | –
328.15 K | – | 1099.1 | 1098.4
333.15 K | 1095 | – | 1095.5
338.15 K | 1092 | 1093.4 | 1092.6
343.15 K | 1089 | 1090.5 | –
348.15 K | 1085.9 | – | 1087.1
353.15 K | 1082.7 | – | –

CC[n+]1ccn(C)c1.N#C[S-] + CC[n+]1ccn(C)c1.N#C[N-]C#N
x1 = 1
Conditions | mass density [kg/m3]
298.15 K | 1115.6
303.15 K | 1112.5
308.15 K | 1109.5
313.15 K | 1106.5
323.15 K | 1100.6
333.15 K | 1094.8
348.15 K | 1085.9
353.15 K | 1082.7

CC[n+]1ccn(C)c1.N#C[S-] + CCOS(=O)(=O)[O-].CC[n+]1ccn(C)c1
mass density [kg/m3]
Conditions | x1 = 0.199 | x1 = 0.32 | x1 = 0.429 | x1 = 0.67 | x1 = 0.899 | x1 = 0.9505 | x1 = 1
298.15 K | 1226.6 | 1214.5 | 1198.7 | – | 1133.5 | 1123.5 | 1115.6
303.15 K | 1223.3 | 1211.2 | 1195.5 | 1164.5 | 1130.4 | 1120.4 | 1112.5
308.15 K | – | 1208 | 1192.4 | 1161.4 | 1127.4 | 1117.4 | 1109.5
313.15 K | 1220.1 | 1208 | – | 1161.4 | 1127.4 | 1117.4 | 1109.5
318.15 K | 1216.9 | 1204.8 | 1189.2 | 1158.5 | 1124.4 | – | 1106.5
323.15 K | 1210.5 | 1198.5 | 1183 | 1152.4 | – | 1108.3 | 1100.6
328.15 K | 1207.3 | 1195.3 | – | 1149.4 | 1115.1 | 1105.3 | 1097.7
333.15 K | 1204.2 | – | 1176.7 | 1146.3 | 1112.1 | 1102.4 | 1094.8
338.15 K | 1201 | 1189.1 | 1173.6 | 1143.2 | – | 1099.4 | 1091.9
343.15 K | 1197.8 | – | – | 1140.1 | 1105.7 | 1096.5 | 1088.9
348.15 K | 1194.5 | 1182.9 | 1167.1 | 1137 | 1102.6 | – | 1085.9
353.15 K | 1191 | 1179.8 | 1163.8 | 1133.9 | 1099.7 | 1090.6 | 1082.7

CC[n+]1ccn(C)c1.N#C[S-] + [N-]=C=S.[NH4+]
x2 = 0
Conditions | mass density [kg/m3]
298.15 K | 1115.6
303.15 K | 1112.5
308.15 K | 1109.5
313.15 K | 1106.5
318.15 K | 1103.6
328.15 K | 1097.7
333.15 K | 1094.8
338.15 K | 1091.9
343.15 K | 1088.9

CCOS(=O)(=O)[O-].CC[n+]1ccn(C)c1 + CC[n+]1ccn(C)c1.N#C[S-]
x2 = 0
Conditions | mass density [kg/m3]
298.15 K | 1238.4
303.15 K | 1235.1
308.15 K | 1231.7
313.15 K | 1231.7
318.15 K | 1228.4
323.15 K | 1221.9
328.15 K | 1218.7
333.15 K | 1215.5
338.15 K | 1212.2
343.15 K | 1208.9
348.15 K | 1205.4

CC[n+]1ccn(C)c1.N#C[N-]C#N + CC[n+]1ccn(C)c1.N#C[S-]
mass density [kg/m3]
Conditions | x2 = 0 | x2 = 0.2585 | x2 = 0.5112 | x2 = 0.7603
298.15 K | 1100.8 | – | 1108.5 | 1112.2
303.15 K | 1097.4 | 1101.4 | 1105.3 | 1109.1
308.15 K | 1094.2 | – | 1102.2 | 1106
313.15 K | 1090.9 | 1095 | 1099 | 1102.9
318.15 K | – | 1091.8 | 1096 | –
323.15 K | 1084.6 | 1088.7 | – | 1097
328.15 K | 1081.4 | – | 1089.8 | 1094
333.15 K | – | 1082.5 | 1086.8 | 1091
338.15 K | 1075.1 | – | 1083.7 | 1088.1
343.15 K | 1071.9 | 1076.3 | 1080.7 | 1085.1
348.15 K | 1068.7 | 1073.2 | – | 1082.1
353.15 K | 1065.3 | 1070.1 | 1074.5 | –
